Source: ChEMBL document CHEMBL1961873, “Compounds: GSK PKIS; Assays: Nanosyn kinase panel” (2012)
For some of these results: What follows is the remainder of the data, with few or none of the strong results. This is a selection; strong and weak results do not stand in their true shares.

What was measured:
[1] = biological target: CDK3/Cyclin E (Homo sapiens) (UniProt P24864+Q00526); conditions: at 1 µM;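 further: each figure is a mean percent inhibition of the CDK3/cyclin E complex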
[2] = biological target: Cyclin-dependent kinase 4 (Homo sapiens) (UniProt P11802); conditions: at 0.1 µM
[3] = biological target: Cyclin-dependent kinase 4 (Homo sapiens) (UniProt P11802); conditions: at 1 µM
[4] = biological target: Cyclin-dependent kinase 5 (Homo sapiens) (UniProt Q00535); conditions: at 0.1 µM
[5] = biological target: Cyclin-dependent kinase 5 (Homo sapiens) (UniProt Q00535); conditions: at 1 µM
[6] = biological target: Cyclin-dependent kinase 6 (Homo sapiens) (UniProt Q00534); conditions: at 0.1 µM
[7] = biological target: Cyclin-dependent kinase 6 (Homo sapiens) (UniProt Q00534); conditions: at 1 µM
[8] = biological target: Dual specificity protein kinase CLK2 (Homo sapiens) (UniProt P49760); conditions: at 0.1 µM
[9] = biological target: Dual specificity protein kinase CLK2 (Homo sapiens) (UniProt P49760); conditions: at 1 µM
[10] = biological target: Dual specificity protein kinase CLK3 (Homo sapiens) (UniProt P49761); conditions: at 0.1 µM
[11] = biological target: Dual specificity protein kinase CLK3 (Homo sapiens) (UniProt P49761); conditions: at 1 µM
[12] = biological target: Dual specificity tyrosine-phosphorylation-regulated kinase 1A (Homo sapiens) (UniProt Q13627); conditions: at 0.1 µM
[13] = biological target: Dual specificity tyrosine-phosphorylation-regulated kinase 1A (Homo sapiens) (UniProt Q13627); conditions: at 1 µM
[14] = biological target: Dual specificity tyrosine-phosphorylation-regulated kinase 1B (Homo sapiens) (UniProt Q9Y463); conditions: at 0.1 µM
[15] = biological target: Dual specificity tyrosine-phosphorylation-regulated kinase 1B (Homo sapiens) (UniProt Q9Y463); conditions: at 1 µM
[16] = biological target: T1, Dual specificity tyrosine-phosphorylation-regulated kinase 2 (Homo sapiens) (UniProt Q92630); conditions: at 0.1 µM
T1 sequence (whole entry): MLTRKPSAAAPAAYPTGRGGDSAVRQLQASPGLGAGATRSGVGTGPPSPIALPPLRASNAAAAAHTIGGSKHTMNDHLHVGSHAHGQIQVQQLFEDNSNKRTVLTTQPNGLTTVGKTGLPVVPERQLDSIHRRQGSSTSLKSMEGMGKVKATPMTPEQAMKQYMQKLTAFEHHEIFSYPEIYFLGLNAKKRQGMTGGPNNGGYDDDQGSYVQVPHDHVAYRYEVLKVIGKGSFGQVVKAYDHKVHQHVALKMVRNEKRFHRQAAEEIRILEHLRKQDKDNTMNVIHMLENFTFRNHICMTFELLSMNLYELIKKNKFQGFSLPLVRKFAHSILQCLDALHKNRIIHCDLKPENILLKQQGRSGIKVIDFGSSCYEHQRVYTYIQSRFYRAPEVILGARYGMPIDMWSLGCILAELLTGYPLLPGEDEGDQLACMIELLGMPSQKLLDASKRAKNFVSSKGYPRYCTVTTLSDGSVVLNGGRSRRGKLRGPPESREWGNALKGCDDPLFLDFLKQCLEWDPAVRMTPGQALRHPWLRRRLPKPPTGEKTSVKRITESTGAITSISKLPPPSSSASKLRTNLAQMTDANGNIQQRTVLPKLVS

[17] = biological target: T1, Dual specificity tyrosine-phosphorylation-regulated kinase 2 (Homo sapiens); conditions: at 1 µM
[18] = biological target: Glycogen synthase kinase-3 alpha (Homo sapiens) (UniProt P49840); conditions: at 0.1 µM
[19] = biological target: Glycogen synthase kinase-3 alpha (Homo sapiens) (UniProt P49840); conditions: at 1 µM
[20] = biological target: Glycogen synthase kinase-3 beta (Homo sapiens) (UniProt P49841); conditions: at 0.1 µM;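 further: values are mean percent inhibition of GSK3B activity, from the GSK Published Kinase Inhibitor Set (PKIS) screening dataset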

SMILES	inhibition [1] [%]	inhibition [2] [%]	inhibition [3] [%]	inhibition [4] [%]	inhibition [5] [%]	inhibition [6] [%]	inhibition [7] [%]	inhibition [8] [%]	inhibition [9] [%]	inhibition [10] [%]	inhibition [11] [%]	inhibition [12] [%]	inhibition [13] [%]	inhibition [14] [%]	inhibition [15] [%]	inhibition [16] [%]	inhibition [17] [%]	inhibition [18] [%]	inhibition [19] [%]	inhibition [20] [%]
CS(=O)(=O)c1ccc(Oc2nccc(-c3c(-c4ccc(F)cc4)ncn3C3CCNCC3)n2)cc1	-5.23	1.4	3	-0.5	-0.46	0.71	-0.9	0.95	-0.63	0.25	0.22	2.01	3.13	-3.03	-2.34	1.98	2.49	1.47	3.81	0.64
NC(=O)CCc1ccccc1Oc1nccc(-c2c(-c3ccc(F)cc3)ncn2C2CCNCC2)n1	-0.48	0.06	0.88	0.01	0.72	-0.95	0.07	-0.81	-1.21	0.18	0.49	0.97	1.86	1.93	1.76	-0.57	-1.39	1.92	0.57	0.1
COc1ccccc1Oc1nccc(-c2c(-c3ccc(F)cc3)ncn2C2CCNCC2)n1	-1.34	2.25	7.64	5.2	7.05	1.89	2.29	1.18	0.48	1.16	1.09	3.51	4.65	-0.1	2.12	3.68	3.17	4.26	7.7	4.08
Fc1ccc(-c2ncn(C3CCNCC3)c2-c2ccnc(Oc3cccc(F)c3)n2)cc1	-0.04	1.38	1.76	0.34	1.14	1.69	0.32	1.73	3.47	1.25	2.22	3.35	6.16	-0.55	1.8	3.84	6.27	2.81	3.76	3.1
O=C1NC(=O)C(c2ccccc2)=C1Nc1ccccc1	1.36	5.7	13.3	1.94	7.42	2.92	10.4	2.47	10.4	1.85	4.88	5.17	17.3	2.25	7.93	3.42	3.62	19.2	55.5	–
Fc1ccc(-c2ncn(C3CCNCC3)c2-c2ccnc(Oc3cccc(C(F)(F)F)c3)n2)cc1	-2.05	2.74	5.2	0.19	0.86	2.48	-1.01	1.24	0.21	0.94	1.46	2.5	4.13	-0.62	-0.35	4.43	2.66	4.18	3.44	2.57
Cc1cccc(Oc2nccc(-c3c(-c4ccc(F)cc4)ncn3C3CCNCC3)n2)c1C	-1.44	3.16	5.15	2.05	3.49	-2.52	-1.71	-0.68	-0.35	1.88	0.94	3.48	3.76	-1.24	0.42	2.91	1.81	4.56	4.51	2.52
